Results as given in the supplement of paper PMC4967469.
A lower IC50 marks a more sensitive line; a limit (>, <) means that the fit lies beyond the doses tested. The AUC spans the tested range (256-fold, ending at the top dose) of the same fit; it is 1 without any effect and falls as sensitivity rises. For part of these data: Where the top dose is marked as inferred, it was derived from the fitted curves, not read from the paper.

Columns and labels:
Test in all cases: Viability of human cancer cell lines after 72 h of drug (GDSC screen)
Dabrafenib = compound: CC(C)(C)c1nc(-c2cccc(NS(=O)(=O)c3c(F)cccc3F)c2F)c(-c2ccnc(N)n2)s1 [Dabrafenib]; conditions: top dose 10 µM
Method: (§1)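 Human cancer cell lines in 384-well plates, medium with 10% serum, drug for 72 h over a 256-fold dose range (nine 2-fold or five 4-fold steps up to the top dose). Adherent lines were fixed and stained with the nucleic acid dye Syto60, suspension lines read with resazurin; signal relative to control wells, capped at 0 and 100%. One two-parameter sigmoid per drug and line, fitted in a mixed model over all curves with the slope shared within a line.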

Methotrexate = compound: CN(Cc1cnc2nc(N)nc(N)c2n1)c1ccc(C(=O)N[C@@H](CCC(=O)O)C(=O)O)cc1 [Methotrexate]; conditions: top dose 0.2 µM
Method: as §1

SN-38 = compound: CCc1c2c(nc3ccc(O)cc13)-c1cc3c(c(=O)n1C2)COC(=O)[C@]3(O)CC [SN-38]; conditions: top dose 0.05 µM; top dose inferred
Method: as §1

Vorinostat = compound: O=C(CCCCCCC(=O)Nc1ccccc1)NO [Vorinostat]; conditions: top dose 10 µM
Method: as §1

Axitinib = compound: CNC(=O)c1ccccc1Sc1ccc2c(/C=C/c3ccccn3)n[nH]c2c1 [Axitinib]; conditions: top dose 2 µM
Method: as §1

Cell Line	AUC (Dabrafenib)	IC50 (Dabrafenib) [µM]	AUC (Methotrexate)	IC50 (Methotrexate) [µM]	AUC (SN-38)	IC50 (SN-38) [µM]	AUC (Vorinostat)	IC50 (Vorinostat) [µM]	AUC (Axitinib)	IC50 (Axitinib) [µM]
HD-MY-Z (Hodgkin lymphoma, adherent)	0.788	4.41	0.846	0.147	0.504	0.00321	0.48	0.55	0.873	1.93
SW1710 (bladder, adherent)	0.866	9.37	0.973	> 0.2	0.76	0.0181	0.833	6.73	0.947	> 2
SUP-B8 (B-cell leukaemia, suspension)	0.979	> 10	0.754	0.0667	0.7	0.0113	0.54	0.802	0.934	> 2
CHSA0108 (chondrosarcoma, adherent)	0.835	8.09	0.953	> 0.2	0.718	0.0145	0.627	1.48	0.931	> 2
EC-GI-10 (oesophagus, adherent)	0.939	> 10	0.986	> 0.2	0.673	0.00941	0.758	3.44	0.966	> 2
SIMA (neuroblastoma, adherent)	0.984	> 10	0.892	> 0.2	0.488	0.00289	0.675	2.06	0.919	> 2
MOG-G-CCM (glioma, adherent)	0.975	> 10	0.928	> 0.2	0.804	0.0302	0.76	4.07	0.919	> 2
GR-ST (lymphoblastic leukaemia, suspension)	0.816	7.04	0.651	0.0359	0.468	0.0025	0.758	4.14	0.964	> 2
NCI-H520 (lung squamous cell carcinoma, adherent)	0.986	> 10	0.94	> 0.2	0.896	> 0.05	0.902	> 10	0.96	> 2
TK (B-cell lymphoma, suspension)	0.979	> 10	0.749	0.0598	0.582	0.00512	0.627	1.35	0.99	> 2
TT (thyroid, adherent)	0.913	> 10	0.977	> 0.2	0.842	> 0.05	0.641	1.79	0.908	> 2
COLO-680N (oesophagus, adherent)	0.98	> 10	0.975	> 0.2	0.943	> 0.05	0.796	5.7	0.979	> 2
IST-SL1 (small cell lung carcinoma, semi-adherent)	0.981	> 10	0.869	0.193	0.857	0.0427	0.649	1.63	0.901	> 2
BHT-101 (thyroid, adherent)	0.115	< 0.0391	0.985	> 0.2	0.558	0.00453	0.361	0.254	0.956	> 2
RO82-W-1 (thyroid, adherent)	0.921	> 10	0.974	> 0.2	0.669	0.0106	0.849	> 10	0.923	> 2
KLE (endometrium, adherent)	0.915	> 10	0.952	> 0.2	0.925	> 0.05	0.854	> 10	0.978	> 2
RL95-2 (endometrium, adherent)	0.957	> 10	0.941	> 0.2	0.889	> 0.05	0.717	2.56	0.932	> 2
HARA (lung squamous cell carcinoma, adherent)	0.977	> 10	0.82	0.14	0.696	0.0123	0.679	2.16	0.907	> 2
HCC-366 (non-small cell lung carcinoma, adherent)	0.983	> 10	0.951	> 0.2	0.842	0.0371	0.803	5.21	0.969	> 2
RMG-I (ovary, adherent)	0.85	9.66	0.98	> 0.2	0.618	0.00698	0.751	3.77	0.969	> 2
ZR-75-30 (breast, adherent)	0.965	> 10	0.981	> 0.2	0.981	> 0.05	0.875	> 10	0.977	> 2
